# Assay results taken from PubChem BioAssay AID624171 (National Center for Advancing Translational Sciences (NCATS), 2012).
# In all, about 410,000 compounds went through this assay and about 1,200 (0.29%) were called active. Inconclusive means that the source gave no clear call. Such entries were picked first, then a sample of the others. Calls come from the whole dose curve; as a rule, active = well fitted activation curve with a large enough effect; inconclusive = small, poorly fitted or top-dose-only effect; inactive = flat fitted curve, though single readings scatter. Potencies beside an inconclusive call are fits to weak or partial responses and may not hold up.
# Assay: qHTS of Nrf2 Activators; note: nearly all actives have a fitted effect of over 65% in size; for activation: % of control where 0% means no effect
# Conditions: AREc32 ARE-luciferase reporter (MCF7-derived line), luminescence, 24 h; activation: at 46.1 µM (top of the series)
# Method in brief: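 For detection, Steady-Glo was added and plates sat 30 min at RT; before that, AREc32_Fluc cells grown overnight in OPTI-MEM/5% FBS had been treated with 23 nL compound for 24 hr at 37 deg C.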
# Potency is the fitted concentration of half-maximal effect; tags give direction and shape of the fitted curve.
SMILES,Potency,activation
CCN(CC)C(=O)c1ccc(S(=O)(=O)Cc2ccc(C)cc2)c([N+](=O)[O-])c1,"inconclusive: 20 µM [activator, single point]",
O=C(c1ccc(=O)oc1)N1CCOCC1,,inactive: -0.204%
Oc1ccccc1Nc1ncnc2c1oc1ccccc12,"inconclusive: 7.08 µM [activator, partial curve, poor fit]",
CCOC(=O)c1cc(-c2cccc(O)c2)oc1C,"inconclusive: 6.31 µM [activator, partial curve]",
O=C(CC1S/C(=N/N=C/c2ccco2)NC1=O)Nc1cccc(Cl)c1Cl (stereo not given),"inconclusive: 11.2 µM [activator, partial curve, poor fit]",
Cc1ccc(-c2[nH]nc3c2C(c2ccoc2)C(C#N)=C(N)O3)cc1C (stereo not given),"inconclusive: 17.8 µM [activator, single point]",
CCn1cc2nc(SCc3ccccc3F)n(Cc3ccc(C)cc3)c(=O)c2n1,,inactive: 4.26%
COc1ccc(/C(N)=N/OC(=O)c2cccc([N+](=O)[O-])c2C)cc1,"inconclusive: 3.55 µM [activator, partial curve, poor fit]",
CCCS(=O)(=O)Nc1cc2c(cc1NCc1ccccc1)n(C)c(=O)n2C,"inconclusive: 15.8 µM [activator, partial curve, poor fit]",
CCOC(=O)c1c(NC(=O)CCS(=O)(=O)c2ccccc2)sc2c1CCN(C(C)C)C2,"inconclusive: 22.4 µM [activator, single point]",
CC(=O)Nc1ccc2c(c1)C(=Nc1cccc(C)c1)c1ccccc1-2,"inconclusive: 22.4 µM [activator, partial curve, poor fit]",
Cc1nn(-c2ccccc2)c2nc3c(cc12)C(=O)CCC3,"inconclusive: 12.6 µM [activator, partial curve, poor fit]",
Cc1nn(-c2ccccc2)c2c1C(c1ccco1)C(C#N)=C(N)O2 (stereo not given),"inconclusive: 17.8 µM [activator, single point]",
CCOC(=O)C(=Cc1ccc(-n2ccnc2)cc1)C(=O)OCC,"inconclusive: 5.62 µM [activator, single point]",
O=C(Nc1cccc(S(=O)(=O)NC2=NCCC2)c1)c1cc(-c2ccco2)nc2ccccc12,active: 10 µM,
COc1ccc2[nH]cc(/C=C/c3cc[n+](C)cc3)c2c1,,inactive: 5.91%
O=C(NCCCn1ccnc1)c1cc(-c2cccs2)on1,"inconclusive: 12.6 µM [activator, partial curve]",
Fc1ccccc1-c1nc(-c2ccccc2)no1,"inconclusive: 7.94 µM [activator, partial curve, poor fit]",
CCc1ccc(-c2[nH]c3c(c2-c2sc(C)c(C(=O)OC)c2O)c(=O)n(C)c(=O)n3C)cc1,,inactive: -1.37%
CCOc1cccc2sc(NC(=O)CCS(=O)(=O)c3ccccc3)nc12,"inconclusive: 3.55 µM [activator, single point]",
Nc1nc(-c2ccco2)c(-c2ccco2)s1,"inconclusive: 11.2 µM [activator, partial curve]",
COc1cccc(C(=O)Nc2ccncc2)c1OC,,inactive: 0.328%
Cn1nnnc1Sc1ncnc2scc(-c3cccc(C(F)(F)F)c3)c12,"inconclusive: 0.562 µM [activator, full curve, poor fit]",
CCOC(=O)CNCCC(=O)c1ccc(Br)cc1,"inconclusive: 28.2 µM [activator, single point]",

SMILES,Potency,activation
COc1ccc(NC(=O)C(Cl)=C(Cl)Cl)cn1,"inconclusive: 12.6 µM [activator, partial curve]",
Cc1ccc(C(=O)O/N=C(\N)c2cccc([N+](=O)[O-])c2)cc1,"inconclusive: 11.2 µM [activator, partial curve]",
N#C/C(=C\c1c(F)cccc1Cl)S(=O)(=O)c1ccccn1,"inconclusive: 20 µM [activator, single point]",
CCNC(=O)C1CCCN(C(=O)c2ccccc2OC(F)(F)F)CC1 (stereo not given),,inactive: -0.0157% [at 9.22 µM]
O=C(NC(=S)Nc1ccc(CN2CCOCC2)cc1)c1ccc(-c2cccc(Cl)c2)o1,,inactive: 2.59%
CC(C)OC(=O)/C(C#N)=C/c1cn(C)c2ccccc12,"inconclusive: 11.2 µM [activator, partial curve, poor fit]",
Cc1ccc(/C=N/Nc2ccc(C(=O)O)cc2)s1,,inactive: -2.51%
c1ccc2c(N3CCOCC3)nc(-c3ccncc3)nc2c1,,inactive: 0.818%
COc1ccc2occ(C(=O)c3cccs3)c2c1,active: 10 µM,
Clc1ccc(-c2nnc(-c3cccc4ccccc34)o2)cc1,"inconclusive: 1.12 µM [activator, partial curve, poor fit]",
C=C1C(=O)[C@]23C[C@H]1CCC2[C@@]1(C)C(C[C@@H]3O)[C@](C)(C(=O)OC)CC[C@@H]1O (stereo not given in full),"inconclusive: 2.82 µM [activator, partial curve, poor fit]",
CC(CC(=O)N1CCN(c2cccc(Cl)c2)CC1)S(=O)(=O)c1ccc2c(c1)NC(=O)CO2 (stereo not given),,inactive: -0.189%
Cc1[nH]n(C)c(=O)c1C(=O)c1c(-c2c(Cl)cccc2Cl)noc1C,"inconclusive: 25.1 µM [activator, single point]",
Cc1sc(NC(=O)/C=C/C(=O)O)c(C(N)=O)c1-c1ccc(C(C)(C)C)cc1,active: 12.6 µM,
COCCN(C(=O)COC(=O)/C=C/c1nc2ccccc2s1)c1c(N)n(Cc2ccccc2)c(=O)[nH]c1=O,"inconclusive: 12.6 µM [activator, partial curve]",
Cc1ccc(-c2ccc(/C=C(\C#N)C(N)=S)o2)c([N+](=O)[O-])c1,"inconclusive: 20 µM [activator, single point]",
CC(C)CNC(=O)c1cccc(NC(=O)c2ccc(Cl)c([N+](=O)[O-])c2)c1,"inconclusive: 25.1 µM [activator, single point]",
NC(=S)N/N=C/c1ccc(-n2nncc2-c2ccc(Cl)cc2)cc1,"inconclusive: 35.5 µM [activator, partial curve, poor fit]",
COc1ccc(OC)c(C(=O)/C=C/c2ccccc2C(F)(F)F)c1,"inconclusive: 3.16 µM [activator, partial curve, poor fit]",
COc1ccc(-c2nnc3c4ccccc4c(C)nn23)cc1,active: 4.47 µM,
COc1ccc2c(c1)cc1c(=O)n(CC(=O)NCCCc3ccccc3)nc(C)n12,,inactive: -1.03%
CN(C)C(CNS(=O)(=O)c1cc([N+](=O)[O-])ccc1Cl)c1ccco1 (stereo not given),"inconclusive: 15.8 µM [activator, partial curve, poor fit]",
CSc1nc2ccc(NC(=O)c3ccc(=O)[nH]c3)cc2s1,"inconclusive: 20 µM [activator, single point]",
N#Cc1cn(-c2ccccc2)nc1-c1ccco1,"inconclusive: 2 µM [activator, full curve, poor fit]",

SMILES,Potency,activation
Cc1c(Cl)cccc1NC(=O)Cn1cnc2nc3c(cc2c1=O)CCCC3,,inactive: 3.38%
CC(C)C(c1nnnn1C(C)(C)C)N1CCOCC1 (stereo not given),,inactive: 2.71%
O=C(CCS(=O)(=O)c1ccc(Cl)cc1)Nc1nccs1,"inconclusive: 17.8 µM [activator, single point]",
O=c1c2ccccc2oc2nc(-c3ccco3)n(-c3ccccc3)c(=O)c12,"inconclusive: 11.2 µM [activator, partial curve]",
O=C(CCc1ccccc1)Nc1ccc(S(=O)(=O)N2CCCC2)cc1,,inactive: 0.301%
O=[N+]([O-])c1cccc(SSc2cccc([N+](=O)[O-])c2)c1,"inconclusive: 20 µM [activator, single point]",
O=[N+]([O-])c1ccc(Oc2cccnc2)c([N+](=O)[O-])c1,"inconclusive: 20 µM [activator, single point]",
CC1CCN(c2ccc(NC(=O)c3ccc([N+](=O)[O-])o3)cc2)CC1,"inconclusive: 3.98 µM [activator, single point]",
O=c1c2ccccc2sn1-c1ccc(F)cc1,,inactive: 20%
COC(=O)N1C(=O)[C@](c2ccccc2)(C2CCCCC2)N1C(=O)OC,"inconclusive: 22.4 µM [activator, single point]",
Cc1ccc(C(=O)n2nc(C)c(S(=O)(=O)N3CCCCCC3)c2C)cc1,,inactive: -0.82%
Cc1cc(C)cc(OCc2ccc(C(=O)Nc3ccccc3F)o2)c1,,inactive: 2.9%
O=C(Nc1ncc2c(n1)CC(c1ccco1)CC2=O)c1ccco1 (stereo not given),"inconclusive: 11.2 µM [activator, partial curve]",
CCOc1ccc(-c2noc(-c3csc([C@@H]4C[C@H](O)[C@@H](CO)O4)n3)n2)cc1,,inactive: 3.95%
O=C(NCc1nnnn1-c1ccc(F)cc1)c1ccc([N+](=O)[O-])o1,"inconclusive: 3.16 µM [activator, partial curve, poor fit]",
COc1ccc(NC(=O)CSc2oc(-c3cccs3)nc2S(=O)(=O)c2ccccc2)c(OC)c1,,inactive: 2.03%
COc1ccccc1Cc1c(-c2ccco2)nc2ccc(Cl)cn12,"inconclusive: 7.08 µM [activator, full curve]",
Cc1ccc(S(=O)(=O)CS(=O)(=O)c2ccc(C)cc2)cc1,,inactive: -0.0215%
Cc1nc2cc(-c3cccc(F)c3)nn2c(C)c1CCC(=O)NCCc1ccccc1,,inactive: 0.68%
Cc1cccc(NC(=O)CSc2nnc(CN3CCOCC3)n2C)c1C,,inactive: -0.706%
Cc1ccc(C)c(N2CCN(C(=O)c3cc(C)nc4c3c(C)nn4-c3ccccc3)CC2)c1,,inactive: -0.12%
COc1ccccc1C(=O)NCc1nc2cccnc2n1Cc1ccc(F)cc1,"inconclusive: 6.31 µM [activator, partial curve, poor fit]",
